Results from the supplement of paper PMC8728848.
The other results are listed elsewhere or left out.

Tests used:
Assay in all cases: glycan array binding signal (z-score within array); higher = stronger binding
Details in all cases: glycan notation: IUPAC condensed, linker removed
Fuc(a1-2)Gal = biological target: Fuc(a1-2)Gal
Summary of the method: (§1)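 Glycan array data were curated from 3228 arrays in the Consortium for Functional Glycomics database and kept only where the protein sequence was available. Glycan names were converted to IUPAC-condensed notation, and columns mapping to the same glycan were averaged. The binding signal is a within-array Z-score, averaged across arrays of the same protein sequence at different concentrations or buffers and across linkers. Negative Z-scores can be read as non-binding.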

Fuc(a1-2)Gal(b1-3)GalNAc = biological target: Fuc(a1-2)Gal(b1-3)GalNAc
Summary of the method: as §1

[1] = biological target: Fuc(a1-2)Gal(b1-3)GalNAc(a1-3)[Fuc(a1-2)]Gal(b1-4)Glc
Summary of the method: as §1

[2] = biological target: Fuc(a1-2)Gal(b1-3)GalNAc(a1-3)[Fuc(a1-2)]Gal(b1-4)GlcNAc
Summary of the method: as §1

[3] = biological target: Fuc(a1-2)Gal(b1-3)GalNAc(b1-3)Gal
Summary of the method: as §1

[4] = biological target: Fuc(a1-2)Gal(b1-3)GalNAc(b1-3)Gal(a1-4)Gal(b1-4)Glc
Summary of the method: as §1

[5] = biological target: Fuc(a1-2)Gal(b1-3)GalNAc(b1-4)[Neu5Ac(a2-3)]Gal(b1-4)Glc
Summary of the method: as §1

Fuc(a1-2)Gal(b1-3)GlcNAc = biological target: Fuc(a1-2)Gal(b1-3)GlcNAc
Summary of the method: as §1

[6] = biological target: Fuc(a1-2)Gal(b1-3)GlcNAc(b1-2)Man(a1-3)[Fuc(a1-2)Gal(b1-3)GlcNAc(b1-2)Man(a1-6)]Man(b1-4)GlcNAc(b1-4)GlcNAc
Summary of the method: as §1

[7] = biological target: Fuc(a1-2)Gal(b1-3)GlcNAc(b1-2)Man(a1-3)[Fuc(a1-2)Gal(b1-3)GlcNAc(b1-2)Man(a1-6)]Man(b1-4)GlcNAc(b1-4)[Fuc(a1-6)]GlcNAc
Summary of the method: as §1

[8] = biological target: Fuc(a1-2)Gal(b1-3)GlcNAc(b1-3)Gal(b1-4)Glc
Summary of the method: as §1

[9] = biological target: Fuc(a1-2)Gal(b1-3)GlcNAc(b1-3)GalNAc
Summary of the method: as §1

[10] = biological target: Fuc(a1-2)Gal(b1-3)GlcNAc(b1-3)[Fuc(a1-2)Gal(b1-3)GlcNAc(b1-6)]GalNAc
Summary of the method: as §1

[11] = biological target: Fuc(a1-2)Gal(b1-3)GlcNAc(b1-3)[Gal(b1-4)GlcNAc(b1-6)]Gal(b1-4)Glc
Summary of the method: as §1

[12] = biological target: Fuc(a1-2)Gal(b1-3)GlcNAc(b1-3)[Neu5Ac(a2-6)Gal(b1-4)GlcNAc(b1-6)]Gal(b1-4)Glc
Summary of the method: as §1

[13] = biological target: Fuc(a1-2)Gal(b1-3)GlcNAc6S
Summary of the method: as §1

[14] = biological target: Fuc(a1-2)Gal(b1-3)[Fuc(a1-4)]GlcNAc
Summary of the method: as §1

[15] = biological target: Fuc(a1-2)Gal(b1-3)[Fuc(a1-4)]GlcNAc(b1-2)Man(a1-3)[Fuc(a1-2)Gal(b1-3)[Fuc(a1-4)]GlcNAc(b1-2)Man(a1-3)]Man(b1-4)GlcNAc(b1-4)GlcNAc
Summary of the method: as §1

[16] = biological target: Fuc(a1-2)Gal(b1-3)[Fuc(a1-4)]GlcNAc(b1-2)Man(a1-3)[Fuc(a1-2)Gal(b1-3)[Fuc(a1-4)]GlcNAc(b1-2)Man(a1-6)]Man(b1-4)GlcNAc(b1-4)[Fuc(a1-6)]GlcNAc(b1-4)[Fuc(a1-6)]GlcNAc
Summary of the method: as §1

[17] = biological target: Fuc(a1-2)Gal(b1-3)[Fuc(a1-4)]GlcNAc(b1-3)[Fuc(a1-3)[Gal(b1-4)]GlcNAc(b1-6)]Gal(b1-4)Glc
Summary of the method: as §1

[18] = biological target: Fuc(a1-2)Gal(b1-3)[Fuc(a1-4)]GlcNAc(b1-3)[Gal(b1-4)GlcNAc(b1-6)]Gal(b1-4)Glc
Summary of the method: as §1

[19] = biological target: Fuc(a1-2)Gal(b1-4)Fuc(a1-3)]GlcNAc(b1-2)Man(a1-3)[Fuc(a1-2)Gal(b1-4)[Fuc(a1-3)]GlcNAc(b1-2)Man(a1-6)]Man(b1-4)GlcNAc(b1-4)GlcNAc
Summary of the method: as §1

Fuc(a1-2)Gal(b1-4)Glc = biological target: Fuc(a1-2)Gal(b1-4)Glc
Summary of the method: as §1

Fuc(a1-2)Gal(b1-4)Glc6S = biological target: Fuc(a1-2)Gal(b1-4)Glc6S
Summary of the method: as §1

Fuc(a1-2)Gal(b1-4)GlcNAc = biological target: Fuc(a1-2)Gal(b1-4)GlcNAc
Summary of the method: as §1

[20] = biological target: Fuc(a1-2)Gal(b1-4)GlcNAc(b1-2)Man
Summary of the method: as §1

[21] = biological target: Fuc(a1-2)Gal(b1-4)GlcNAc(b1-2)Man(a1-3)[Fuc(a1-2)Gal(b1-4)GlcNAc(b1-2)Man(a1-6)]Man(b1-4)GlcNAc(b1-4)GlcNAc
Summary of the method: as §1

[22] = biological target: Fuc(a1-2)Gal(b1-4)GlcNAc(b1-2)Man(a1-3)[Fuc(a1-2)Gal(b1-4)GlcNAc(b1-2)Man(a1-6)]Man(b1-4)GlcNAc(b1-4)[Fuc(a1-6)]GlcNAc
Summary of the method: as §1

[23] = biological target: Fuc(a1-2)Gal(b1-4)GlcNAc(b1-2)[Fuc(a1-2)Gal(b1-4)GlcNAc(b1-4)]Man(a1-3)[Fuc(a1-2)Gal(b1-4)GlcNAc(b1-2)Man(a1-6)]Man(b1-4)GlcNAc(b1-4)GlcNAc
Summary of the method: as §1

[24] = biological target: Fuc(a1-2)Gal(b1-4)GlcNAc(b1-3)Gal(b1-4)GlcNAc
Summary of the method: as §1

B1: Di AAL2 (Agrocybe aegerita) (protein)
chain: MTSNVITQDLPIPVASRGFADIVGFGLDGVVIGRNAVNLQPFLAVKNFAQNAGGWLTTKHVRLIADTTGTGKGDIVGFGNAGVYVSVNNGKNTFADPPKMVIANFGYDAGGWRVEKHLRYLADIRKIGRADIIGFGEKGVLVSRNNGGLNFGPATLVLKDFGYDAGGWRLDRHLRFLADVTGNGHLDIVGFGDKHVFISRNNGDGTFAPAKSVIDNFCIDAGGWKIGDHPRFVADLTGDGTADIIGCGKAGCWVALNNGGGVFGQVKLVINDFGTDKGWQAAKHPRFIADLTGNGRGDVVGFGNAGVYVALNNGDGTFQSAKLVLKDFGVQQGWTVSKHRRFVVDLTGDGCADIIGFGEKETLVSYNDGKGNFGPVKALTNDFSFSGGKWAPETTVCWMANLDSSRHPAPAPMTSNVITQDLPIPVASRGFADIVGFGLDGVVIGRNAVNLQPFLAVKNFAQNAGGWLTTKHVRLIADTTGTGKGDIVGFGNAGVYVSVNNGKNTFADPPKMVIANFGYDAGGWRVEKHLRYLADIRKIGRADIIGFGEKGVLVSRNNGGLNFGPATLVLKDFGYDAGGWRLDRHLRFLADVTGNGHLDIVGFGDKHVFISRNNGDGTFAPAKSVIDNFCIDAGGWKIGDHPRFVADLTGDGTADIIGCGKAGCWVALNNGGGVFGQVKLVINDFGTDKGWQAAKHPRFIADLTGNGRGDVVGFGNAGVYVALNNGDGTFQSAKLVLKDFGVQQGWTVSKHRRFVVDLTGDGCADIIGFGEKETLVSYNDGKGNFGPVKALTNDFSFSGGKWAPETTVCWMANLDSSRH
glycan array binding signal (z-score) (Fuc(a1-2)Gal): -0.316 | glycan array binding signal (z-score) (Fuc(a1-2)Gal(b1-3)GalNAc): -0.337 | glycan array binding signal (z-score) [1]: -0.326 | glycan array binding signal (z-score) [2]: -0.31 | glycan array binding signal (z-score) [3]: -0.332 | glycan array binding signal (z-score) [4]: -0.332 | glycan array binding signal (z-score) [5]: -0.317 | glycan array binding signal (z-score) (Fuc(a1-2)Gal(b1-3)GlcNAc): -0.34 | glycan array binding signal (z-score) [6]: -0.288 | glycan array binding signal (z-score) [7]: -0.315 | glycan array binding signal (z-score) [8]: -0.334 | glycan array binding signal (z-score) [9]: -0.312 | glycan array binding signal (z-score) [10]: -0.287 | glycan array binding signal (z-score) [11]: -0.327 | glycan array binding signal (z-score) [12]: -0.337 | glycan array binding signal (z-score) [13]: -0.299 | glycan array binding signal (z-score) [14]: -0.34 | glycan array binding signal (z-score) [15]: -0.319 | glycan array binding signal (z-score) [16]: -0.293 | glycan array binding signal (z-score) [17]: -0.337 | glycan array binding signal (z-score) [18]: -0.328 | glycan array binding signal (z-score) [19]: -0.035 | glycan array binding signal (z-score) (Fuc(a1-2)Gal(b1-4)Glc): -0.336 | glycan array binding signal (z-score) (Fuc(a1-2)Gal(b1-4)Glc6S): -0.331 | glycan array binding signal (z-score) (Fuc(a1-2)Gal(b1-4)GlcNAc): -0.344 | glycan array binding signal (z-score) [20]: -0.307 | glycan array binding signal (z-score) [21]: -0.322 | glycan array binding signal (z-score) [22]: -0.301 | glycan array binding signal (z-score) [23]: -0.328 | glycan array binding signal (z-score) [24]: -0.337
